The other results are listed elsewhere or left out. Single values are uncertain, as repeats are few or missing.
What was measured:
Experiment in all cases: cell count relative to DMSO control; melanoma cells; higher = more viable cells
Conditions in all cases: library dose: low library concentration; 72 h; first compound 0.4 µM
WM115 = system: WM115
WM1716 = system: WM1716
WM1745 = system: WM1745
WM3526 = system: WM3526
WM3619 = system: WM3619
WM451Lu = system: WM451Lu
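Further: cell number obtained by counting DAPI-stained nuclei in high-throughput microscope images with image analysis software, screen run in 1,536-well plates.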

| Structure (SMILES) | cell count (WM115) [%] | cell count (WM1716) [%] | cell count (WM1745) [%] | cell count (WM3526) [%] | cell count (WM3619) [%] | cell count (WM451Lu) [%] |
| --- | --- | --- | --- | --- | --- | --- |
| C[C@@H](N)c1ccc(C(=O)Nc2ccnc3[nH]ccc23)cc1 + COc1ccc2c(c1)CCC1C2CCC2(C)C(NCCCCCCN3C(=O)C=CC3=O)CCC12 [U73122] (partner dose 0.4 µM) | 120 | 76.2 | 80.3 | 79.7 | 67.5 | 105 |
| Cn1sc(=O)n(Cc2ccccc2)c1=O + COc1cc2c(Oc3ccc4[nH]c(C)cc4c3F)ncnc2cc1OCCCN1CCCC1 [cediranib] (partner dose 0.4 µM) | 94.5 | 112 | 78.2 | 90.2 | 95.6 | 97 |
| Cn1sc(=O)n(Cc2ccccc2)c1=O + CC(C)(C)c1cnc(CSc2cnc(NC(=O)C3CCNCC3)s2)o1 [SNS-032] (partner dose 0.01 µM) | 80.6 | 92.2 | 102 | 76.5 | 104 | 95.3 |
| Cn1sc(=O)n(Cc2ccccc2)c1=O + CC(=O)O[C@@]12CO[C@@H]1C[C@H](O)[C@@]1(C)C(=O)[C@H](O)C3=C(C)[C@@H](OC(=O)[C@H](O)[C@@H](NC(=O)OC(C)(C)C)c4ccccc4)C[C@@](O)([C@@H](OC(=O)c4ccccc4)[C@H]21)C3(C)C [Docetaxel] (partner dose 0.0001 µM) | 82.1 | 49.7 | 52.5 | 55.9 | 61 | 57.2 |
| Cn1sc(=O)n(Cc2ccccc2)c1=O + O=C(O)C(=O)Nc1sc2c(c1C(=O)O)CCNC2 [TCS401] (partner dose 1.66667 µM) | 107 | 115 | 95.4 | 104 | 96.8 | 121 |
| CCCCCCCCCCCCCCCCCCOP(=O)([O-])OC1CC[N+](C)(C)CC1 [Perifosine] + O=C(O)C(=O)Nc1sc2c(c1C(=O)O)CCNC2 [TCS401] (partner dose 1.66667 µM) | 98.3 | 92.7 | 76.3 | 100 | 81.5 | 86.4 |
| C[C@@H](N)c1ccc(C(=O)Nc2ccnc3[nH]ccc23)cc1 + CNC(=O)c1cc(Oc2ccc(NC(=O)Nc3ccc(Cl)c(C(F)(F)F)c3)cc2)ccn1 [sorafenib] (partner dose 0.4 µM) | 114 | 77.6 | 72 | 109 | 93.7 | 103 |
| Cn1sc(=O)n(Cc2ccccc2)c1=O + Cn1c(=O)n(-c2ccc(C(C)(C)C#N)cc2)c2c3cc(-c4cnc5ccccc5c4)ccc3ncc21 [NVP-BEZ235] (partner dose 0.004 µM) | 105 | 80.7 | 97.3 | 90.8 | 76.6 | 95.8 |
| Cn1sc(=O)n(Cc2ccccc2)c1=O + C[C@@H]1CCN(C(=O)CC#N)C[C@@H]1N(C)c1ncnc2[nH]ccc12 [CP690550] (partner dose 1 µM) | 99 | 108 | 97.4 | 97.4 | 122 | 122 |
| Cn1sc(=O)n(Cc2ccccc2)c1=O + NC1(c2ccc(-c3nc4ccn5c(=O)[nH]nc5c4cc3-c3ccccc3)cc2)CCC1 [MK2206] (partner dose 0.4 µM) | 85.7 | 122 | 109 | 85.8 | 83.4 | 106 |
| CCCCCCCCCCCCCCCCCCOP(=O)([O-])OC1CC[N+](C)(C)CC1 [Perifosine] + CN1CCN(c2ccc3nc(-c4c(N)c5c(F)cccc5[nH]c4=O)[nH]c3c2)CC1 [Dovitinib] (partner dose 0.1 µM) | 102 | 99.5 | 90 | 96.8 | 73.2 | 110 |
| CCCCCCCCCCCCCCCCCCOP(=O)([O-])OC1CC[N+](C)(C)CC1 [Perifosine] + O=C(O)c1ccc(-c2c[nH]c3ncc(-c4ccccc4)cc23)cc1C1CCCC1 [GSK650394] (partner dose 0.16 µM) | 91.8 | 88.4 | 93.4 | 81.2 | 87.9 | 109 |
| C[C@@H](N)c1ccc(C(=O)Nc2ccnc3[nH]ccc23)cc1 + CCCS(=O)(=O)Nc1ccc(F)c(C(=O)c2c[nH]c3ncc(Cl)cc23)c1F [PLX4720] (partner dose 0.08 µM) | 95.2 | 63.4 | 81.3 | 85.3 | 77.7 | 96.2 |
| Cn1sc(=O)n(Cc2ccccc2)c1=O + COc1cc(Nc2ncc(F)c(Nc3ccc4c(n3)NC(=O)C(C)(C)O4)n2)cc(OC)c1OC [Tamatinib] (partner dose 0.4 µM) | 91.6 | 91.9 | 65.5 | 80.1 | 61.1 | 90 |
| CCCCCCCCCCCCCCCCCCOP(=O)([O-])OC1CC[N+](C)(C)CC1 [Perifosine] + COCC[n+]1c2c(n(Cc3cnccn3)c1C)C(=O)c1ccccc1C2=O [YM155] (partner dose 0.0004 µM) | 103 | 78.6 | 113 | 101 | 86 | 57.2 |
| C[C@@H](N)c1ccc(C(=O)Nc2ccnc3[nH]ccc23)cc1 + COC(=O)c1sccc1S(=O)(=O)Nc1ccc(Nc2ccccc2)cc1OC [GSK0660] (partner dose 1 µM) | 98.9 | 63.7 | 90.7 | 109 | 98.1 | 95.2 |

| Structure (SMILES) | cell count (WM115) [%] | cell count (WM1716) [%] | cell count (WM1745) [%] | cell count (WM3526) [%] | cell count (WM3619) [%] | cell count (WM451Lu) [%] |
| --- | --- | --- | --- | --- | --- | --- |
| C[C@@H](N)c1ccc(C(=O)Nc2ccnc3[nH]ccc23)cc1 + N#Cc1c(O)c2c(-c3ccc(-c4ccccc4O)cc3)csc2[nH]c1=O [A769662] (partner dose 2 µM) | 103 | 79.1 | 84.4 | 97.2 | 94.5 | 86.6 |
| Cn1sc(=O)n(Cc2ccccc2)c1=O + COc1ccc2c(c1)CCC1C2CCC2(C)C(NCCCCCCN3C(=O)C=CC3=O)CCC12 [U73122] (partner dose 0.4 µM) | 107 | 76 | 89.3 | 70 | 86.2 | 69.4 |
| CCCCCCCCCCCCCCCCCCOP(=O)([O-])OC1CC[N+](C)(C)CC1 [Perifosine] + Cn1c(=O)n(-c2ccc(C(C)(C)C#N)cc2)c2c3cc(-c4cnc5ccccc5c4)ccc3ncc21 [NVP-BEZ235] (partner dose 0.004 µM) | 92.9 | 98.5 | 106 | 91.9 | 83 | 123 |
| C[C@@H](N)c1ccc(C(=O)Nc2ccnc3[nH]ccc23)cc1 + Oc1cc(-c2nc(-c3ccccc3)[nH]c2-c2ccncc2)ccc1Cl [L779450] (partner dose 0.2 µM) | 74.1 | 77.1 | 59.4 | 84.8 | 102 | 94.3 |
| Cn1sc(=O)n(Cc2ccccc2)c1=O + OCc1c[nH]c2ccccc12 [Indole-3-carbinol] (partner dose 0.8 µM) | 105 | 114 | 100 | 93.7 | 77.8 | 108 |
| CCCCCCCCCCCCCCCCCCOP(=O)([O-])OC1CC[N+](C)(C)CC1 [Perifosine] + Cc1ccc(NC(=O)c2cccc(N(C)C)c2)cc1NC(=O)c1ccc(O)cc1 [ZM336372] (partner dose 2 µM) | 97.6 | 103 | 77.5 | 102 | 85.1 | 102 |
| Cn1sc(=O)n(Cc2ccccc2)c1=O + NC(=O)c1ccc(N(C(N)=O)c2c(F)cccc2F)nc1-c1ccc(F)cc1F [VX702] (partner dose 0.4 µM) | 97.1 | 106 | 89.5 | 90.9 | 109 | 86.6 |
| C[C@@H](N)c1ccc(C(=O)Nc2ccnc3[nH]ccc23)cc1 + COc1cc2ncnc(Nc3ccc(Oc4ccccc4)cc3)c2cc1OC [SrcI1] (partner dose 2 µM) | 114 | 73.4 | 79.4 | 106 | 120 | 70.1 |
| C[C@@H](N)c1ccc(C(=O)Nc2ccnc3[nH]ccc23)cc1 + C[C@]1(O)C[C@@H](c2nc(-c3ccc4ccc(-c5ccccc5)nc4c3)c3c(N)nccn32)C1 [OSI906] (partner dose 0.4 µM) | 112 | 66.3 | 58.9 | 99.7 | 79.7 | 89 |
| CCCCCCCCCCCCCCCCCCOP(=O)([O-])OC1CC[N+](C)(C)CC1 [Perifosine] + OCc1c[nH]c2ccccc12 [Indole-3-carbinol] (partner dose 0.8 µM) | 99.4 | 75.6 | 92 | 82.3 | 111 | 103 |
| C[C@@H](N)c1ccc(C(=O)Nc2ccnc3[nH]ccc23)cc1 + COc1cc(N2CCC(N3CCN(C)CC3)CC2)ccc1Nc1ncc(Cl)c(Nc2ccccc2S(=O)(=O)C(C)C)n1 [NVP-TAE684] (partner dose 0.08 µM) | 106 | 66.8 | 60.5 | 104 | 72.4 | 85.3 |
| C[C@@H](N)c1ccc(C(=O)Nc2ccnc3[nH]ccc23)cc1 + COc1ccc(-c2ccc3c(N4CCOCC4)nc(N4C[C@@H](C)O[C@@H](C)C4)nc3n2)cc1CO [KU0063794] (partner dose 0.02 µM) | 110 | 53.2 | 70.4 | 101 | 89.4 | 94.7 |
| Cn1sc(=O)n(Cc2ccccc2)c1=O + Nc1ncn([C@H]2C[C@H](O)[C@@H](CO)O2)c(=O)n1 [decitabine] (partner dose 0.1 µM) | 92.6 | 92.2 | 90 | 111 | 84.5 | 95.2 |
| Cn1sc(=O)n(Cc2ccccc2)c1=O + O=C(O)c1ccc(-c2c[nH]c3ncc(-c4ccccc4)cc23)cc1C1CCCC1 [GSK650394] (partner dose 0.16 µM) | 98.6 | 94.5 | 88.4 | 74.8 | 91.5 | 75.5 |
| CCCCCCCCCCCCCCCCCCOP(=O)([O-])OC1CC[N+](C)(C)CC1 [Perifosine] + Cc1nc(Nc2ncc(C(=O)Nc3c(C)cccc3Cl)s2)cc(N2CCN(CCO)CC2)n1 [dasatanib] (partner dose 0.004 µM) | 80.1 | 95.7 | 79.7 | 104 | 119 | 94.1 |
